# The list shows a part of the results.
# B1: Langerin K313I (Homo sapiens), Q9UJ71 (protein)
# chain: STLNAQIPELKSDLEKASALNTKIRALQGSLENMSKLLKRQNDILQVVSQGWKYFKGNFYYFSLIPKTWYSAEQFCVSRNSHLTSVTSESEQEFLYKTAGGLIYWIGLTKAGMEGDWSWVDDTPFNKVQSARFWIPGEPNNAGNNEHCGNIKAPSLQAWNDAPCDITFLFICKRPYVPSEP
# How the values were obtained:
# Assay in all cases: glycan array binding signal (z-score within array); higher = stronger binding
# Settings in all cases: glycan notation: IUPAC condensed, linker removed
# [1] = biological target: Fuc(a1-2)Gal
# Procedure, shortened: (§1)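 Glycan array binding is given as a within-array Z-score, which can be read as non-binding when negative. The arrays, 3228 of them, came from the Consortium for Functional Glycomics database and were retained only where the protein sequence was available. Z-scores were averaged across arrays of the same protein sequence at different concentrations or buffers and across linkers.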
# [2] = biological target: Fuc(a1-2)Gal(b1-3)GalNAc
# Procedure, shortened: as §1
# [3] = biological target: Fuc(a1-2)Gal(b1-3)GalNAc(a1-3)[Fuc(a1-2)]Gal(b1-4)Glc
# Procedure, shortened: as §1
# [4] = biological target: Fuc(a1-2)Gal(b1-3)GalNAc(a1-3)[Fuc(a1-2)]Gal(b1-4)GlcNAc
# Procedure, shortened: as §1
# [5] = biological target: Fuc(a1-2)Gal(b1-3)GalNAc(b1-3)Gal
# Procedure, shortened: as §1
# [6] = biological target: Fuc(a1-2)Gal(b1-3)GalNAc(b1-3)Gal(a1-4)Gal(b1-4)Glc
# Procedure, shortened: as §1
# [7] = biological target: Fuc(a1-2)Gal(b1-3)GalNAc(b1-4)[Neu5Ac(a2-3)]Gal(b1-4)Glc
# Procedure, shortened: as §1
# [8] = biological target: Fuc(a1-2)Gal(b1-3)GlcNAc
# Procedure, shortened: as §1
# [9] = biological target: Fuc(a1-2)Gal(b1-3)GlcNAc(b1-2)Man(a1-3)[Fuc(a1-2)Gal(b1-3)GlcNAc(b1-2)Man(a1-6)]Man(b1-4)GlcNAc(b1-4)GlcNAc
# Procedure, shortened: as §1
# [10] = biological target: Fuc(a1-2)Gal(b1-3)GlcNAc(b1-2)Man(a1-3)[Fuc(a1-2)Gal(b1-3)GlcNAc(b1-2)Man(a1-6)]Man(b1-4)GlcNAc(b1-4)[Fuc(a1-6)]GlcNAc
# Procedure, shortened: as §1
# [11] = biological target: Fuc(a1-2)Gal(b1-3)GlcNAc(b1-3)Gal(b1-4)Glc
# Procedure, shortened: as §1
# [12] = biological target: Fuc(a1-2)Gal(b1-3)GlcNAc(b1-3)GalNAc
# Procedure, shortened: as §1
# [13] = biological target: Fuc(a1-2)Gal(b1-3)GlcNAc(b1-3)[Fuc(a1-2)Gal(b1-3)GlcNAc(b1-6)]GalNAc
# Procedure, shortened: as §1
# [14] = biological target: Fuc(a1-2)Gal(b1-3)GlcNAc(b1-3)[Gal(b1-4)GlcNAc(b1-6)]Gal(b1-4)Glc
# Procedure, shortened: as §1
# [15] = biological target: Fuc(a1-2)Gal(b1-3)GlcNAc(b1-3)[Neu5Ac(a2-6)Gal(b1-4)GlcNAc(b1-6)]Gal(b1-4)Glc
# Procedure, shortened: as §1
# [16] = biological target: Fuc(a1-2)Gal(b1-3)GlcNAc6S
# Procedure, shortened: as §1
# [17] = biological target: Fuc(a1-2)Gal(b1-3)[Fuc(a1-4)]GlcNAc
# Procedure, shortened: as §1
# [18] = biological target: Fuc(a1-2)Gal(b1-3)[Fuc(a1-4)]GlcNAc(b1-2)Man(a1-3)[Fuc(a1-2)Gal(b1-3)[Fuc(a1-4)]GlcNAc(b1-2)Man(a1-3)]Man(b1-4)GlcNAc(b1-4)GlcNAc
# Procedure, shortened: as §1
# [19] = biological target: Fuc(a1-2)Gal(b1-3)[Fuc(a1-4)]GlcNAc(b1-2)Man(a1-3)[Fuc(a1-2)Gal(b1-3)[Fuc(a1-4)]GlcNAc(b1-2)Man(a1-6)]Man(b1-4)GlcNAc(b1-4)[Fuc(a1-6)]GlcNAc(b1-4)[Fuc(a1-6)]GlcNAc
# Procedure, shortened: as §1
# [20] = biological target: Fuc(a1-2)Gal(b1-3)[Fuc(a1-4)]GlcNAc(b1-3)[Fuc(a1-3)[Gal(b1-4)]GlcNAc(b1-6)]Gal(b1-4)Glc
# Procedure, shortened: as §1
# [21] = biological target: Fuc(a1-2)Gal(b1-3)[Fuc(a1-4)]GlcNAc(b1-3)[Gal(b1-4)GlcNAc(b1-6)]Gal(b1-4)Glc
# Procedure, shortened: as §1
# [22] = biological target: Fuc(a1-2)Gal(b1-4)Fuc(a1-3)]GlcNAc(b1-2)Man(a1-3)[Fuc(a1-2)Gal(b1-4)[Fuc(a1-3)]GlcNAc(b1-2)Man(a1-6)]Man(b1-4)GlcNAc(b1-4)GlcNAc
# Procedure, shortened: as §1
# [23] = biological target: Fuc(a1-2)Gal(b1-4)Glc
# Procedure, shortened: as §1
# [24] = biological target: Fuc(a1-2)Gal(b1-4)Glc6S
# Procedure, shortened: as §1
# [25] = biological target: Fuc(a1-2)Gal(b1-4)GlcNAc
# Procedure, shortened: as §1
# [26] = biological target: Fuc(a1-2)Gal(b1-4)GlcNAc(b1-2)Man
# Procedure, shortened: as §1
# [27] = biological target: Fuc(a1-2)Gal(b1-4)GlcNAc(b1-2)Man(a1-3)[Fuc(a1-2)Gal(b1-4)GlcNAc(b1-2)Man(a1-6)]Man(b1-4)GlcNAc(b1-4)GlcNAc
# Procedure, shortened: as §1
# [28] = biological target: Fuc(a1-2)Gal(b1-4)GlcNAc(b1-2)Man(a1-3)[Fuc(a1-2)Gal(b1-4)GlcNAc(b1-2)Man(a1-6)]Man(b1-4)GlcNAc(b1-4)[Fuc(a1-6)]GlcNAc
# Procedure, shortened: as §1
# [29] = biological target: Fuc(a1-2)Gal(b1-4)GlcNAc(b1-2)[Fuc(a1-2)Gal(b1-4)GlcNAc(b1-4)]Man(a1-3)[Fuc(a1-2)Gal(b1-4)GlcNAc(b1-2)Man(a1-6)]Man(b1-4)GlcNAc(b1-4)GlcNAc
# Procedure, shortened: as §1
# [30] = biological target: Fuc(a1-2)Gal(b1-4)GlcNAc(b1-3)Gal(b1-4)GlcNAc
# Procedure, shortened: as §1
# [31] = biological target: Fuc(a1-2)Gal(b1-4)GlcNAc(b1-3)Gal(b1-4)GlcNAc(b1-2)Man(a1-3)[Fuc(a1-2)Gal(b1-4)GlcNAc(b1-3)Gal(b1-4)GlcNAc(b1-2)Man(a1-6)]Man(b1-4)GlcNAc(b1-4)GlcNAc
# Procedure, shortened: as §1
# [32] = biological target: Fuc(a1-2)Gal(b1-4)GlcNAc(b1-3)Gal(b1-4)GlcNAc(b1-3)Gal(b1-4)GlcNAc
# Procedure, shortened: as §1
# [33] = biological target: Fuc(a1-2)Gal(b1-4)GlcNAc(b1-3)GalNAc
# Procedure, shortened: as §1
# [34] = biological target: Fuc(a1-2)Gal(b1-4)GlcNAc(b1-3)[Fuc(a1-2)Gal(b1-4)GlcNAc(b1-6)]GalNAc
# Procedure, shortened: as §1
# [35] = biological target: Fuc(a1-2)Gal(b1-4)GlcNAc(b1-3)[Fuc(a1-3)[Gal(b1-4)]GlcNAc(b1-6)]Gal(b1-4)Glc
# Procedure, shortened: as §1
# [36] = biological target: Fuc(a1-2)Gal(b1-4)GlcNAc(b1-6)GalNAc
# Procedure, shortened: as §1
# [37] = biological target: Fuc(a1-2)Gal(b1-4)GlcNAc6S
# Procedure, shortened: as §1
binder,measurement,setting,value
B1,glycan array binding signal (z-score),[1],-0.316
same,glycan array binding signal (z-score),[2],-0.168
same,glycan array binding signal (z-score),[3],-0.158
same,glycan array binding signal (z-score),[4],-0.297
same,glycan array binding signal (z-score),[5],-0.308
same,glycan array binding signal (z-score),[6],-0.375
same,glycan array binding signal (z-score),[7],-0.347
same,glycan array binding signal (z-score),[8],-0.355
same,glycan array binding signal (z-score),[9],0.11
same,glycan array binding signal (z-score),[10],0.195
same,glycan array binding signal (z-score),[11],-0.379
same,glycan array binding signal (z-score),[12],-0.129
same,glycan array binding signal (z-score),[13],-0.021
same,glycan array binding signal (z-score),[14],-0.365
same,glycan array binding signal (z-score),[15],-0.168
same,glycan array binding signal (z-score),[16],0.033
same,glycan array binding signal (z-score),[17],-0.272
same,glycan array binding signal (z-score),[18],0.275
same,glycan array binding signal (z-score),[19],0.377
same,glycan array binding signal (z-score),[20],-0.289
same,glycan array binding signal (z-score),[21],-0.34
same,glycan array binding signal (z-score),[22],0.164
same,glycan array binding signal (z-score),[23],-0.149
same,glycan array binding signal (z-score),[24],-0.294
same,glycan array binding signal (z-score),[25],-0.253
same,glycan array binding signal (z-score),[26],-0.032
same,glycan array binding signal (z-score),[27],-0.009
same,glycan array binding signal (z-score),[28],0.249
same,glycan array binding signal (z-score),[29],0.308
same,glycan array binding signal (z-score),[30],0.07
same,glycan array binding signal (z-score),[31],0.009
same,glycan array binding signal (z-score),[32],-0.131
same,glycan array binding signal (z-score),[33],0.031
same,glycan array binding signal (z-score),[34],0.102
same,glycan array binding signal (z-score),[35],-0.324
same,glycan array binding signal (z-score),[36],0.16
same,glycan array binding signal (z-score),[37],-0.329
